Some of the results follow. Shown are side measurements of this screen, not its main read-out; they come without a call. The list favours compounds with an active or inconclusive main result.
Each molecule was assayed against Runt-related transcription factor 1 (Homo sapiens) + Core-binding factor subunit beta (Homo sapiens) (UniProt Q01196+Q13951) (assay: disruptors of Runt domain/CBFb-SMMHC interaction – biochemical, FRET, Cerulean-Runt, Venus-CBFb-SMMHC, uHTS, primary screen (AID 1434;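 further: 0% = DMSO wells and 100% = wells with excess untagged CBFb-SMMHC; inhibitors lower the FRET ratio by blocking Runt binding to CBFb-SMMHC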)). Conditions: Cerulean-Runt/Venus-CBFb-SMMHC FRET ratio 530/480, 1 h; retest duplicate average; at 20 µM; stronger effect = higher value.
Sequence of UniProt Q01196 (Q01196 whole entry, looked up, the tested form may be a part): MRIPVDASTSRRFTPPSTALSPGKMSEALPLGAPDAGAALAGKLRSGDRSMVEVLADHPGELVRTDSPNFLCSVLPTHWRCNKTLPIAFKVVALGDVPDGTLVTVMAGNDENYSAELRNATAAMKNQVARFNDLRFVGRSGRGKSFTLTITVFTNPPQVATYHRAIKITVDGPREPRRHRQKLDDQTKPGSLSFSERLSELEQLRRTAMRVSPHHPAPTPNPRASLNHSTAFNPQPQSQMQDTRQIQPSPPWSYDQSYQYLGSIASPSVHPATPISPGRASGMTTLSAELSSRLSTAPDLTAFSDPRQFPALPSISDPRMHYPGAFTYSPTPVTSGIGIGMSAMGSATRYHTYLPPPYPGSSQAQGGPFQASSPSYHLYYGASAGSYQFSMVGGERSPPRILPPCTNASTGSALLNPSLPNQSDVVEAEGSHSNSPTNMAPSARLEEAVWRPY
Sequence of UniProt Q01196 (Q13951 whole entry, looked up, the tested form may be a part): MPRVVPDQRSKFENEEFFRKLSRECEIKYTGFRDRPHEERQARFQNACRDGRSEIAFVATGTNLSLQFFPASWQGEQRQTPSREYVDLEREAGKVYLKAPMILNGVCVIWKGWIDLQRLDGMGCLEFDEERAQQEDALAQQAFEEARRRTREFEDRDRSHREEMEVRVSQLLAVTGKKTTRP

Row | SMILES | inhibition [%]
1 | COc1ccc(/C=C2\CCCc3c2nc2ccccc2c3C(=O)O)cc1OC | 70.6
2 | CCn1cc(C2C(C(=O)Nc3ccc(Br)cn3)=C(C)NC3=C2C(=O)CCC3)c(C)n1 (centres undefined) | 68
3 | CCCCc1cc(=O)oc2c(CN(CC)CC)c(O)c(Cl)cc12 | 160
4 | CC(C)CCN(CCC(C)C)CC(O)Cn1c2ccccc2c(=O)c2ccccc21 (centres undefined) | 165
5 | CCCCCCc1cc2cc(C(N)=O)c(=N)oc2cc1O | 72.9
6 | CCCn1nc(NC(=O)c2cccs2)c2cc3cc(OC)ccc3nc21 | 104
7 | CN1CCc2c(sc3ncn4nc(-c5ccccc5O)nc4c23)C1 | 142
8 | O=C(COc1ccccc1)NNc1c2ccccc2nc2ccccc12 | 92.4
9 | CCNc1sc(C(=O)c2cccs2)c(N)c1-c1nc2ccccc2s1 | 101
10 | Cc1ccc2cc(C#N)c(NCCNC(=O)C3CC3)nc2c1C | 110
11 | O=S(=O)(Nc1ccc(-c2nc3cccnc3s2)cc1)c1cccs1 | 170
12 | COCCn1c(C)cc2c(c1=O)C(c1ccco1)C(C#N)=C(N)O2 (centres undefined) | 173
13 | Cc1ccc(S(=O)(=O)NNc2ccccc2)cc1 | 54.8
14 | COCCCNC(=O)c1c(N)n(-c2ccc(S(N)(=O)=O)cc2)c2nc3ccccc3nc12 | 90.2
15 | CC(C)N1CC=C2C(C#N)=C(N)C(C#N)(C#N)C(c3ccccc3)C2C1 (centres undefined) | 148
16 | COC(=O)C1=C(C)NC2=C(C(=O)CC(C)(C)C2)C1c1ccccn1 (centres undefined) | 103
17 | Cc1cccc(N=c2oc3cc(O)ccc3cc2C(N)=O)c1 | 72.9
18 | N#Cc1c2c(c(NCc3ccco3)n3c1nc1ccccc13)CCC2 | 74.9
19 | CN1CCc2c(sc(N)c2C(N)=O)C1 | 160
20 | CC(=O)Nc1ccc2cc3ccc(NC(C)=O)cc3nc2c1 | 3.2
21 | CCCCn1c(-c2cccs2)nc2nc3ccccc3nc21 | 109
22 | COc1cc(OC)c(OC)cc1/C=N/Nc1ncnc2c1[nH]c1ccccc12 | 54.8

Row | SMILES | inhibition [%]
23 | COc1cccc(-n2c(SCc3cc(=O)oc4cc(O)c(O)cc34)nc3ccccc3c2=O)c1 | 91.2
24 | CCOC(=O)c1c(N)n(CC(C)NC(=O)C2CC2)c2nc3ccccc3nc12 (centres undefined) | 143
25 | O=C1C=CC(=O)N1c1cccc(-c2ccccc2)c1 | 60.2
26 | C=CCN1C(=O)/C(=C2/Sc3ccccc3N2CCCS(=O)(=O)O)SC1=S | 115
27 | COCCn1c(N)c(C(=O)NCc2cccs2)c2nc3ccccc3nc21 | 103
28 | Cc1cccc2cc(C#N)c(N3CCC(O)CC3)nc12 | 83.6
29 | c1ccc(C2CC(c3cccs3)=NN2c2ccccc2)cc1 (centres undefined) | 80.6
30 | COC(=O)C1=C(C)NC2=C(C(=O)C(C(=O)OC)C(c3ccc(OC)cc3)C2)C1c1ccccn1 (centres undefined) | 82
31 | CCOC(=O)Cc1csc(/N=C/c2c(O)n(-c3ccc(C)c(C)c3)c(=O)c3ccccc23)n1 | 72.4
32 | CCN(CC)c1ccc(/C=N/NC(=O)c2c(Cl)cnn2C)c(O)c1 | 136
33 | COCCCn1c(CCC(=O)O)ccc1-c1cccs1 | 130
34 | CCCCn1c(N)c(NCC)c(=O)[nH]c1=O | 84.2
35 | CCn1cc(C2C(C(=O)Nc3cc(C)ccn3)=C(C)NC3=C2C(=O)CC(C)(C)C3)c(C)n1 (centres undefined) | 68.7
36 | CN(C)CCCn1c(N)c(C#N)c2nc3ccccc3nc21 | 70.6
37 | CCN1CCS/C1=C/C=C/C1=[N+](CC)CCS1 | 181
38 | COC(=O)C1=CNC=C(C(=O)OC)C1c1ccccc1Cl | 148
39 | COc1ccc(OC)c2c1C(=O)C(Cl)=C(Cl)C2=O | 65.2
40 | COc1ccc2nc(N3CCC(C)CC3)c(C#N)cc2c1 | 113
41 | Cc1ccc(S(=O)(=O)NC(C(=O)Oc2cc3oc(=O)cc(C)c3cc2Cl)C(C)C)cc1 (centres undefined) | 76.9
42 | CC(=O)Oc1ccc2ccc(=O)oc2c1 | 93.7
43 | COc1cc(C2CC(c3cccnc3)=NN2c2ccc(F)cc2)cc(OC)c1OC (centres undefined) | 54.4
44 | CCC(C)n1c(NC(=O)c2ccccc2)c(C#N)c2nc3ccccc3nc21 (centres undefined) | 56.6

Row | SMILES | inhibition [%]
45 | O=c1[nH]c2ccccc2nc1/C=C/c1ccccc1 | 121
46 | CCOC(=O)c1sc2c(c1C)C(c1cccs1)C1=C(CCCC1=O)N2 (centres undefined) | 134
47 | Cc1c(Cc2ccccc2)c(=O)oc2cc(O)cc(O)c12 | 73.8
48 | CCOC(=O)c1c(N2C(=O)C=CC2=O)sc(C)c1C | 61.3
49 | Cc1ccc(C2C3CN(C(C)C)CC=C3C(C#N)=C(N)C2(C#N)C#N)cc1 (centres undefined) | 131
50 | NS(=O)(=O)c1ccc(N/N=C/c2ccc(O)c(O)c2O)c([N+](=O)[O-])c1 | 57
51 | COc1ccccc1N(CC(=O)N/N=C/c1c(O)ccc2ccccc12)S(C)(=O)=O | 87.1
52 | CCCOc1c(Br)cc(C2C3=C(CCCC3=O)N(C)C3=C2C(=O)CCC3)cc1OC | 171
53 | Cc1cc(C)c2c3c(sc2n1)C(c1cccc(F)c1)C(C#N)=C(N)O3 (centres undefined) | 72.9
54 | Cc1c(C#N)c(=O)oc2ccc3ccccc3c12 | 60.9
55 | COc1ccccc1C1CN(c2ccccc2)N=C1c1cccs1 (centres undefined) | 91.4
56 | N#Cc1c2ccccc2nc2ccccc12 | 111
57 | CCCc1cc(=O)oc2c(CN3CCOCC3)c(O)ccc12 | 86.1
58 | Cc1c(CCC(=O)O)c(=O)oc2cc(O)ccc12 | 80.1
59 | CCCOc1ccc(C2C(C(=O)OC)=CN(CCOC)C=C2C(=O)OC)cc1 | 151
60 | O=S(=O)(Nc1nc2ccccc2nc1N1CCN(c2ccccn2)CC1)c1ccc(Cl)cc1 | 110
61 | CCn1c(O)c(C=Nc2ccccc2)sc1=S | 74.1
62 | Cc1cccn2c(=O)c(/C=C(\C#N)C(=O)NC3CCS(=O)(=O)C3)c(N3CCC(C(N)=O)CC3)nc12 (centres undefined) | 127
63 | N#C/C(=C\c1ccc(N2CCOCC2)o1)C(=O)NCCc1ccccc1 | 94.6
64 | CC(C)(C)C(=O)Nc1nc2c(s1)CN(Cc1ccccc1)CC2 | 102
65 | CC(C)OCCCn1c(-c2ccco2)nc2nc3ccccc3nc21 | 81.6
66 | Cc1ccc(S(=O)(=O)N[C@H](C(=O)Oc2ccc3c(C(F)(F)F)cc(=O)oc3c2)c2ccccc2)cc1 | 72.9

Row | SMILES | inhibition [%]
67 | COc1ccc(-n2c(N)c(C(=O)NCC3CCCO3)c3nc4ccccc4nc32)c(OC)c1 (centres undefined) | 122
68 | Cc1ncc(CO)c(/C=N/NC(=O)c2cc(O)c(O)c(O)c2)c1O | 55.3
69 | CCC(=O)Oc1ccc2c(C)c(Cl)c(=O)oc2c1 | 131
70 | Cc1ccccc1NC(=S)C1=C(O)c2sccc2N(C)S1(=O)=O | 58.8
71 | CN1CCc2c(sc(/N=C/c3ccco3)c2C(N)=O)C1 | 106
72 | NC(=S)c1cc2ccc(O)cc2oc1=O | 72.9
73 | CCCCNC(=O)CN1C(=O)c2cccc(N)c2C1=O | 70.6
74 | C(=C/c1nccc2c1[nH]c1ccccc12)/c1ccc2c(c1)OCO2 | 69.3
75 | CCC(C)(C)n1nnnc1C(c1cc2cc3c(cc2[nH]c1=O)OCO3)N1CCN(C)CC1 (centres undefined) | 75.9
76 | COc1ccc(OC)c(NC(=O)c2cc3oc4ccccc4c3cc2O)c1 | 51.8
77 | CCOC(=O)c1cc2c(=O)n3ccccc3nc2n(Cc2ccccc2)c1=N | 71.5
78 | Cc1c(Br)c(=O)oc2c(C)c(O)ccc12 | 70
79 | COc1ccc(C2=CC(c3c(C)nn(-c4ccccc4)c3Cl)n3nnnc3N2)cc1OC (centres undefined) | 86.1
80 | O=[N+]([O-])c1ccc2c(c1)N([O-])C1(CCCCC1)[N+]2=O | 74.6
81 | Nc1cccc2c1C(=O)N(C(=O)/C=C/c1cccc(F)c1)C2=O | 70.6
82 | Nc1nnc(-c2cc3c(ccc4ccccc43)oc2=O)s1 | 70.6
83 | N=c1c(C(=O)NCc2ccc(F)cc2)cc2c(=O)n3ccccc3nc2n1CCCN1CCOCC1 | 72.9
84 | Cc1cc(C)c2c(=O)n(CC(=O)N3CCC(N4CCCCC4)CC3)sc2n1 | 54.3
85 | CCCCCCCCOc1ccc(C2OC34CCCCC3C(C#N)(C#N)C2(C#N)C(=N)O4)cc1 (centres undefined) | 63.5
86 | CCOC(=O)c1cc2c(=O)n3cccc(C)c3nc2n(CC(C)C)c1=NC(=O)c1ccco1 | 70.6
87 | CN(C)CCCNS(=O)(=O)c1ccc(N2CCC(c3ccc(Cl)cc3)=N2)cc1 | 116
88 | CCOC(=O)C1=C(C)NC2=C(C(=O)CC(C)(C)C2)C1c1cccc(C)n1 (centres undefined) | 86.6

Row | SMILES | inhibition [%]
89 | COc1ccc(-c2cc(=O)oc3cc(OC(=O)C4CCCCC4)c(Cl)cc23)cc1 | 71.5
90 | CCCCn1c(NC(=O)c2ccc(Br)o2)c(S(=O)(=O)c2ccccc2)c2nc3ccccc3nc21 | 141
91 | CC(C)Sc1nc(N2CCOCC2)c2c(c1C#N)CC(C)(C)N(C)C2 | 72.9
92 | CCc1cc2c(CN3CCN(C)CC3)cc(=O)oc2cc1O | 72.9
93 | CN(C)CCNc1c2c(c(C#N)c3nc4ccccc4n13)CCCC2 | 63.8
94 | COC(=O)Cc1cc(=O)oc2cc(O)ccc12 | 95.2
95 | CCN1CCc2nc(NC(=O)C(c3ccccc3)c3ccccc3)sc2C1 | 164
96 | COc1ccc(C(=O)N/N=C/c2c(CO)cnc(C)c2O)cc1 | 70.6
97 | C=CCn1c(N)c(C(=O)OC(C)CC)c2nc3ccccc3nc21 (centres undefined) | 137
98 | Cc1c2c(n3c(nc4ccccc43)c1C#N)N(CCN(C)C)CC2 | 70.6
99 | CCC(=O)Nc1cc(C)c(NC(=O)CCc2ccccc2)cn1 | 119
100 | COC(=O)C1=CN(C2CCCCC2)C=C(C(=O)OC)C1c1ccc2c(c1)OCO2 | 82.1
101 | CN(C)c1nc(-c2ccccc2)cc(C(F)(F)F)c1C#N | 88.8
102 | CC12CCC(=O)N1c1c(sc3nc(N4CCOCC4)c4c(c13)CCCC4)C(=O)N2 (centres undefined) | 98.5
103 | CCN1CCc2nc(SCC(=O)Nc3ccc(OC)cc3)c(C#N)cc2C1 | 95.8
104 | c1ccc(CCNc2ccnc3cc4ccccc4cc23)cc1 | 70.6
105 | CCOCCCn1c(=NC(C)=O)c(C#N)cc2c(=O)n3cccc(C)c3nc21 | 70.6
106 | Cc1ccc(C(=O)O)cc1-n1c(C)cc(C=O)c1C | 70.6
107 | COc1cc(/C=C(\C#N)c2nc3ccccc3[nH]2)c([N+](=O)[O-])cc1OCc1ccccc1 | 67.3
108 | COCCNC(=O)c1c(N)n(CCC2=CCCCC2)c2nc3ccccc3nc12 | 113
109 | CCc1nnc(NS(=O)(=O)c2ccc(N/C=C/C(=O)c3ccc(OC)cc3)cc2)s1 | 50.8

Reference: PubChem BioAssay AID1434 (Sanford-Burnham Center for Chemical Genomics, 2008)
